Source: PubChem BioAssay AID328 (DTP/NCI, 2004)
Inconclusive results and toxic doses are left out. Certain results were filed several times, with different values. Only these are listed. There may be further records. Values given together are repeated measurements in other runs, samples, wells, individuals or studies. What stands in brackets tells the records apart. Letters count within one entry. Signs of the kind (2×) give the number of equal values in this list. Starred links: 1 amine or outer side, 2 acyl side, 3 side chain; linkers in the order of their positions; H or OH if unused. Positions of bridges follow the written chain, without caps; N, C: chain ends. Non-standard residues stand in square brackets, D forms with d. Residues, ends and D or L forms follow the SMILES beside them. Chains are numbered I, II in the order given. Actinocin(9to1) = Cc1c2oc3c(C)ccc(C(=O)[*:1])c3nc-2c(C(=O)[*:2])c(N)c1=O; NMeV = CN[CH](C(=O)O)C(C)C; Aze = O=C(O)[CH]1CCN1; Sar = CNCC(=O)O

Tested on: BDF1 mice, P388 leukemia ip, median survival T/C
Assay: NCI In Vivo Anticancer Drug Screen. Data for tumor model P388 Leukemia (intraperitoneal) in B6D2F1 (BDF1) mice
Settings: endpoint: median survival time, higher = longer survival
Summary of the method: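 Steps: implant the tumour, treat one group with compound and another with vehicle, record survival, then divide treated by control.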

[1] = dose: 50.0 mg/kg/injection, schedule: Q04DX003 (ip), vehicle: saline
[2] = dose: 200.0 mg/kg/injection, schedule: Q01DX009 (ip), vehicle: Klucel (hydroxypropylcellulose) (HPC)

With `c1cc(NC2CCCCC2)ccc1CN1CCOCC1` the T/C (dose: 200.0 mg/kg/injection, schedule: Q01DX009 (ip), vehicle: other) was 114 % of control and 157 % of control.

`COC(=O)[C@@H](O)[C@](O)(CCC(C)C)C(=O)O[C@@H]1C(OC)=C[C@]23CCCN2CCc2cc4c(cc2[C@H]13)OCO4` was tested, and the T/C (dose: 1.0 mg/kg/injection, schedule: Q03HX016 (ip), vehicle: saline) was 110 % of control and 177 % of control, the T/C (dose: 2.0 mg/kg/injection, schedule: Q03HX008 (ip), vehicle: saline) was 120 % of control and 161 % of control and the T/C (dose: 4.0 mg/kg/injection, schedule: Q01DX006 (iv), vehicle: saline) was 110 % of control and 155 % of control. The T/C (dose: 4.0 mg/kg/injection, schedule: Q01DX009 (oral), vehicle: saline) was 120 % of control and 155 % of control, the T/C (dose: 8.0 mg/kg/injection, schedule: Q04DX003 (ip), vehicle: saline) was 120 % of control and 150 % of control and the T/C (dose: 8.0 mg/kg/injection, schedule: Q08DX002 (ip), vehicle: saline) was 100 % of control and 150 % of control. The T/C (dose: 16.0 mg/kg/injection, schedule: Q08DX002 (ip), vehicle: saline) was 110 % of control and 155 % of control.

For `BrCCN(CCBr)c1ccc2c3c(cccc13)-c1ccccc1-2`, the T/C (dose: 4.12 mg/kg/injection, schedule: Q01DX009 (ip), vehicle: Klucel (hydroxypropylcellulose) (HPC)) was 95 % of control and 165 % of control, the T/C (dose: 6.25 mg/kg/injection, schedule: Q01DX009 (ip), vehicle: Klucel (hydroxypropylcellulose) (HPC)) was 91 % of control, 183 % of control, 191 % of control and the T/C (dose: 9.37 mg/kg/injection, schedule: Q01DX009 (ip), vehicle: Klucel (hydroxypropylcellulose) (HPC)) was 120 % of control and 178 % of control.

`CN(C)CC(Cl)CCl` (stereo not given) was tested, and the T/C (dose: 100.0 mg/kg/injection, schedule: Q01DX009 (ip), vehicle: saline) was 111 % of control, 118 % of control, 154 % of control.

`CCc1ccc2c(c1)N(CCCN(CCCl)CCCl)c1ccccc1S2` was tested, and the T/C (dose: 25.0 mg/kg/injection, schedule: Q04DX003 (ip), vehicle: saline with Tween-80) was 101 % of control, 103 % of control, 150 % of control.

For `COC(=O)[C@@H]1c2cc3c(c(O)c2[C@@H](OC2OC(C)C(OC)C(C)(OC)C2OC)C[C@]1(C)O)C(=O)c1c(O)cc2c(c1C3=O)O[C@H]1O[C@]2(C)[C@H](O)[C@@H](N(C)C)[C@@H]1O` (stereo not given in full), the T/C (dose: 0.5 mg/kg/injection, schedule: Q01DX010 (ip), vehicle: saline) was 109 % of control and 155 % of control.

For `Cn1cnc([N+](=O)[O-])c1Sc1nc(N)nc2c1ncn2C1CC(O)C(CO)O1` (stereo not given), the T/C (dose: 100.0 mg/kg/injection, schedule: Q04DX003 (ip), vehicle: saline) was 109 % of control [sample A] and 154 % of control [sample B].

With `COC(=O)[C@@]12OC[C@]34[C@H]([C@@H](O)[C@@H]1O)[C@@]1(C)CC(=O)C(O)=C(C)[C@@H]1C[C@H]3OC(=O)[C@H](OC(=O)c1ccccc1)[C@@H]24` the T/C (dose: 2000.0 micrograms/kg/injection, schedule: Q01DX009 (ip), vehicle: saline + alcohol) was 105 % of control, 109 % of control, 150 % of control.

In the case of `c1ccc2c(c1)C1=NCCN1c1ccccc1-2`, the T/C (dose: 26.6 mg/kg/injection, schedule: Q01DX009 (ip), vehicle: Klucel (hydroxypropylcellulose) (HPC)) is reported as 104 % of control and 155 % of control.

With `CCN1CC=CCC1` the T/C [1] was 95 % of control, 109 % of control, 150 % of control.

For `O=P(N1CCCCCC1)(N1CC1)N1CC1`, the T/C (dose: 12.5 mg/kg/injection, schedule: Q04DX003 (ip), vehicle: saline) was 100 % of control [sample A] and 158 % of control [sample B] and the T/C (dose: 37.0 mg/kg/injection, schedule: Q04DX003 (ip), vehicle: saline) was 95 % of control and 300 % of control.

In the case of `CC(C)(CBr)C(=O)N1CCN(C(=O)C(C)(C)CBr)CC1`, the T/C (dose: 67.0 mg/kg/injection, schedule: Q04DX003 (ip), vehicle: Klucel (hydroxypropylcellulose) (HPC)) is reported as 110 % of control, 186 % of control, 190 % of control.

`CCN(CC)C(=O)c1ccc(C(Cl)(Cl)Cl)cc1` was tested, and the T/C (dose: 25.0 mg/kg/injection, schedule: Q01DX009 (ip), vehicle: saline with Tween-80) was 106 % of control and 160 % of control.

`O=NN(CCCl)C(=O)Nc1ccc(NC(=O)N(CCCl)N=O)cc1` was tested, and the T/C [2] was 118 % of control and 155 % of control.

`Cc1c2oc3c(C)ccc(C(=O)NC4C(=O)NC(C(C)C)C(=O)N5CCC5C(=O)N(C)CC(=O)N(C)C(C(C)C)C(=O)OC4C)c3nc-2c(C(=O)NC2C(=O)NC(C(C)C)C(=O)N3CCC3C(=O)N(C)CC(=O)N(C)C(C(C)C)C(=O)OC2C)c(N)c1=O` (stereo not given) (I: TV[Aze][Sar][NMeV] / II: TV[Aze][Sar][NMeV]; ester I:1-I:C, II:1-II:C; linker I:N-II:N via Actinocin(9to1); configuration not given here) was tested, and the T/C (dose: 75.0 micrograms/kg/injection, schedule: Q04DX003 (ip), vehicle: saline + alcohol) was 120 % of control and 190 % of control.

In the case of `Cc1noc(-c2ccc([N+](=O)[O-])o2)n1`, the T/C [2] is reported as 110 % of control and 189 % of control.

For `COCCOC1=C(N2CC2)C(=O)C(OCCOC)=C(N2CC2)C1=O`, the T/C (dose: 0.5 mg/kg/injection, schedule: Q01DX009 (ip), vehicle: saline) was 104 % of control and 150 % of control.

With `O=C1NC(c2cccc3ccccc23)Nc2ccccc21` (stereo not given) the T/C (dose: 64.0 mg/kg/injection, schedule: Q01DX009 (ip), vehicle: Klucel (hydroxypropylcellulose) (HPC)) was 100 % of control and 186 % of control.

In the case of `OCCN1CCN(CCCN2c3ccccc3Sc3ccc(C(F)(F)F)cc32)CC1`, the T/C [1] is reported as 120 % of control and 166 % of control.

In the case of `O=C(Nc1ccc(C2=NCCCN2)cc1)c1ccc(C(=O)Nc2ccc(C3=NCCCN3)cc2)nc1`, the T/C (dose: 2.0 mg/kg/injection, schedule: Q01DX009 (ip), vehicle: saline) is reported as 115 % of control and 150 % of control and the T/C (dose: 6.6 mg/kg/injection, schedule: Q01DX009 (ip), vehicle: saline with Tween-80) is reported as 109 % of control and 150 % of control.

For `CC(=O)OC1CCC2(C)C3CCC4(C)C(=CCC5(C(=O)O)CCC(C)(C)CC45)C3(C)CCC2C1(C)C` (stereo not given), the T/C (dose: 1.0 mg/kg/injection, schedule: Q01DX009 (ip), vehicle: alcohol) was 119 % of control and 158 % of control.

For `Oc1cccc2c1[O][Sb][O]2`, the T/C (dose: 12.5 mg/kg/injection, schedule: Q01DX009 (ip), vehicle: saline with Tween-80) was 112 % of control and 163 % of control.

`COC(=O)c1[nH]c(=O)[nH]c(=O)c1F` was tested, and the T/C (dose: 50.0 mg/kg/injection, schedule: Q04DX003 (ip), vehicle: saline with Tween-80) was 122 % of control and 190 % of control.

In the case of `CCC[As](=O)(O)CCC`, the T/C (dose: 50.0 mg/kg/injection, schedule: Q01DX009 (ip), vehicle: saline) is reported as 110 % of control and 150 % of control.

In the case of `Cc1cc(C)n(CO)n1`, the T/C (dose: 100.0 mg/kg/injection, schedule: Q01DX009 (ip), vehicle: Klucel (hydroxypropylcellulose) (HPC)) is reported as 115 % of control and 155 % of control.

For `COc1cc(C=Nc2cc(Cl)c(Cl)c(Cl)c2)ccc1N(CCCl)CCCl`, the T/C (dose: 66.0 mg/kg/injection, schedule: Q04DX003 (ip), vehicle: Klucel (hydroxypropylcellulose) (HPC)) was 109 % of control and 175 % of control and the T/C (dose: 100.0 mg/kg/injection, schedule: Q04DX003 (ip), vehicle: Klucel (hydroxypropylcellulose) (HPC)) was 100 % of control (2×) and 159 % of control.

For `O=NN(CCCl)C(=O)Nc1c[nH]c(=O)[nH]c1=O`, the T/C (dose: 0.39 mg/kg/injection, schedule: Q04DX003 (ip), vehicle: saline with Tween-80) was 119 % of control and 150 % of control.

With `CC(C)C1NC(=O)C(N)C(C)OC(=O)C(C(C)C)N(C)C(=O)CN(C)C(=O)C2CCCN2C1=O` (stereo not given) (tested in a mixture with another compound) (H-TVP[Sar][NMeV]; ester 1-C; configuration not given here) the T/C (dose: 0.15 mg/kg/injection, schedule: Q04DX003 (ip), vehicle: saline + alcohol) was 119 % of control and 195 % of control.

For `ClCCN(CCCl)CCNc1ccnc2cc(Cl)ccc12`, the T/C (dose: 1.0 mg/kg/injection, schedule: Q01DX009 (ip), vehicle: saline) was 122 % of control and 195 % of control.
